Key:
A172 = assay: CCK-8 in vitro anti-tumor proliferation assay; format: cell-based; conditions: Homo sapiens, A 172; Table 3; 72 hours
Protocol: (§1) Example 3: In vitro anti-tumor proliferation assay of the compounds. The purpose of this experiment was to use CCK-8 to detect the in vitro inhibitory activity of the compounds of the present invention against the proliferation of tumor cells. The main reagents, such as RPMI-1640, DMEM high-glucose culture medium, fetal bovine serum, trypsin, etc., were purchased from Gibco BRL. CCK8 and DMSO were products of Sigma. For in vitro experiment, the test compounds were prepared as 10 mM stock solutions in DMSO and stored at −20° C. in the refrigerator in the dark for later use, then diluted to desired concentration with complete culture medium before use. The human lung cancer cells, colon cancer cells, breast cancer cells, glioblastoma cells, human myelomonocytic leukemia cells, and human Burkitt's lymphoma cells used in this experiment were all purchased from the American ATCC company and preserved in laboratory of the inventors. All the above cell lines were cultured in RPMI-1640 complete medium or DMEM complete medium containing 10% fetal bovine serum, 100 U/mL penicillin, and 100 μg/mL streptomycin under 5% carbon dioxide, 37° C. conditions. […] The previous culture medium was discarded, fresh culture medium was added to resuspend the cells, and then the cells were counted. According to the growth rate of different cells, the cell seeding concentration was determined, generally being 3000-5000 cells/well. After determining the seeding concentration, the cell suspension was diluted to desired concentrations with fresh culture medium, and then added to a 96-well plate with 100 μL per well, and 200 μL of PBS was added to the edge wells to prevent evaporation of the culture medium. On the second day, drug treatment was performed. First, the compounds were diluted into a series of gradients with culture medium, and then the drug solution was added to the 96-well plate, with 3 parallel wells for each gradient. Each plate set a blank control group, and ONC201 was used as the positive control group.

A549 = assay: CCK-8 in vitro anti-tumor proliferation assay; format: cell-based; conditions: Homo sapiens, Table 3, 72 hours
Protocol: as §1

MV-4-11 = assay: CCK-8 in vitro anti-tumor proliferation assay; format: cell-based; conditions: Homo sapiens, MV4-11; Table 3; 72 hours
Protocol: as §1

Raji = assay: CCK-8 in vitro anti-tumor proliferation assay; format: cell-based; conditions: Homo sapiens, Table 3, 72 hours
Protocol: as §1

HsClpP = HsClpP (Homo sapiens, UniProt Q16740); assay: Differential Scanning Fluorimetry (DSF); format: binding; conditions: 100 μM compound, 10 μM HsClpP; DMSO blank; FIG. 4
Protocol: Detection was carried out using an RT-PCR instrument for fluorescence detection. The melting curve was selected, with the temperature setting to rise from 25° C. to 99° C. within 40 minutes. Fluorescence detection was performed using the SSYPRO Orange channel, and the data were recorded.

HsClpP in HCT116 cells = biological target: T1, HsClpP in HCT116 cells (Homo sapiens, UniProt Q16740); assay: Cellular Thermal Shift Assay (CETSA); format: cell-based; conditions: 100 μM, 30 minutes, 46-74° C.; FIG. 5
T1 construct: HCT116 cells in logarithmic growth phase are incubated with 100 μM of compound for 30 minutes; endogenous in cells; host or cells: HCT116
T1 sequence (Q16740 57-277): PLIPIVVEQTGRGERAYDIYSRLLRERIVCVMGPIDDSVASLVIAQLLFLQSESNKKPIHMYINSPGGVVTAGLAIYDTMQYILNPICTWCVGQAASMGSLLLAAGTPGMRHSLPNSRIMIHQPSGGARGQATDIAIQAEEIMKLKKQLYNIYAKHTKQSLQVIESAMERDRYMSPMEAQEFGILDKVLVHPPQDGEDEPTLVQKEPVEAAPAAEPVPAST

HCT116 cells [1] = assay: Mitochondrial membrane potential, TMRM probe; format: cell-based, human; conditions: compared to ONC201; FIG. 6
Protocol: In this study, the membrane potential changes are tested using the tetramethylrhodamine methyl ester (TMRM) probe.

HCT116 cells [2] = assay: ROS generation, DCFH-DA staining; format: cell-based, human; conditions: 48 hours; different concentrations; FIG. 8
Excerpt: In cancer cells, mitochondrial reactive oxygen species (ROS) are closely associated with tumorigenesis. Disruption of HsClpP function increases the generation of mitochondrial ROS, thereby inducing apoptosis in tumor cells. […] Changes in intracellular ROS content were observed under a fluorescence microscope.

HCT116 cells [3] = assay: Cell cycle arrest, flow cytometry; format: cell-based, human; conditions: control group 26%, FIG. 9
Excerpt: As the concentration increased, the number of GO/G1 phase cells increased linearly. […] […]. […] […].

HCT116 cells [4] = assay: Colony formation assay, crystal violet; format: cell-based, human; conditions: 12.5nM, 25nM, and 50nM; FIG. 11
Excerpt: Example 11: In vitro Antitumor Cell Colony Formation Assay of preferred Compound. In addition to being closely associated with the proliferation of tumor cells, the regulation of HsClpP also induces cell cycle arrest and the formation of clones. In this experiment, HCT116 cells were used for a cell monoclonal experiment, and stained with crystal violet.

HCT116 cells [5] = assay: Apoptosis, Annexin V/PI staining; conditions: 12.5 nM; FIG. 10
[6] = tested on: human normal embryonic kidney cells (HEK293); assay: In vitro cytotoxicity assay, CCK-8; conditions: up to 50μM; FIG. 13
[7] = tested on: rat myocardial cells (H9C2); assay: In vitro cytotoxicity assay, CCK-8; conditions: FIG. 13

IC50 (A172): 0.03 µM
IC50 (A549): 0.05 µM
IC50 (MV-4-11): 0.006 µM
IC50 (Raji): 0.025 µM
change in Tm value of the HsClpP protein (HsClpP): greater than that of ONC201
Structure (SMILES): O=c1nc2n(c3c1CN(Cc1ccccc1)CC3)CCN2Cc1ccc(F)c(Br)c1 [Compound 21, 7-benzyl-3-(3-bromo-4-fluorobenzyl)-2,3,6,7,8,9-hexahydroimidazo[1,2-a]pyrido[3,4-e]pyrimidin-5 (1H)-one]
HsClpP thermal stability in cells (western blot) (HsClpP in HCT116 cells): can effectively stabilize the HsClpP protein at different temperatures
changes in mitochondrial membrane potential (HCT116 cells [1]): more pronounced and concentration-dependent
intracellular ROS content (HCT116 cells [2]): can induce the generation of ROS
percentage of GO/G1 phase cells (HCT116 cells [3]; 12.5 nM): 40%
number of GO/G1 phase cells (HCT116 cells [3]; 50 nM): 55%
formation of HCT116 mono-clones (HCT116 cells [4]): significantly inhibited
apoptotic rate (HCT116 cells [5]): 4.09%
cytotoxicity on HEK293 cells [6]: no significant cytotoxicity
inhibitory activity on H9C2 cells [7]: no significant inhibitory activity

Source: patent US20240287071A1, “CLASS OF IMIDAZOLIDINOPYRIMIDONE COMPOUNDS AND USE THEREOF IN TREATMENT OF HSCLPP-MEDIATED DISEASES” (SICHUAN UNIVERSITY, priority 2021, published 2024)
